In publication PMC4336329 (PLoS ONE, 2015):
Out of some 310,000 compounds screened, about 2,200 (0.71%) showed an effect of 50% or more. Effects have a minus sign here. The list shows a part of the results.

target: human ether-à-go-go-related gene (hERG) potassium channel (human, UniProt Q12809); experiment: primary screen, population patch clamp on CHO cells stably expressing hERG
Sequence (Q12809 whole entry, looked up): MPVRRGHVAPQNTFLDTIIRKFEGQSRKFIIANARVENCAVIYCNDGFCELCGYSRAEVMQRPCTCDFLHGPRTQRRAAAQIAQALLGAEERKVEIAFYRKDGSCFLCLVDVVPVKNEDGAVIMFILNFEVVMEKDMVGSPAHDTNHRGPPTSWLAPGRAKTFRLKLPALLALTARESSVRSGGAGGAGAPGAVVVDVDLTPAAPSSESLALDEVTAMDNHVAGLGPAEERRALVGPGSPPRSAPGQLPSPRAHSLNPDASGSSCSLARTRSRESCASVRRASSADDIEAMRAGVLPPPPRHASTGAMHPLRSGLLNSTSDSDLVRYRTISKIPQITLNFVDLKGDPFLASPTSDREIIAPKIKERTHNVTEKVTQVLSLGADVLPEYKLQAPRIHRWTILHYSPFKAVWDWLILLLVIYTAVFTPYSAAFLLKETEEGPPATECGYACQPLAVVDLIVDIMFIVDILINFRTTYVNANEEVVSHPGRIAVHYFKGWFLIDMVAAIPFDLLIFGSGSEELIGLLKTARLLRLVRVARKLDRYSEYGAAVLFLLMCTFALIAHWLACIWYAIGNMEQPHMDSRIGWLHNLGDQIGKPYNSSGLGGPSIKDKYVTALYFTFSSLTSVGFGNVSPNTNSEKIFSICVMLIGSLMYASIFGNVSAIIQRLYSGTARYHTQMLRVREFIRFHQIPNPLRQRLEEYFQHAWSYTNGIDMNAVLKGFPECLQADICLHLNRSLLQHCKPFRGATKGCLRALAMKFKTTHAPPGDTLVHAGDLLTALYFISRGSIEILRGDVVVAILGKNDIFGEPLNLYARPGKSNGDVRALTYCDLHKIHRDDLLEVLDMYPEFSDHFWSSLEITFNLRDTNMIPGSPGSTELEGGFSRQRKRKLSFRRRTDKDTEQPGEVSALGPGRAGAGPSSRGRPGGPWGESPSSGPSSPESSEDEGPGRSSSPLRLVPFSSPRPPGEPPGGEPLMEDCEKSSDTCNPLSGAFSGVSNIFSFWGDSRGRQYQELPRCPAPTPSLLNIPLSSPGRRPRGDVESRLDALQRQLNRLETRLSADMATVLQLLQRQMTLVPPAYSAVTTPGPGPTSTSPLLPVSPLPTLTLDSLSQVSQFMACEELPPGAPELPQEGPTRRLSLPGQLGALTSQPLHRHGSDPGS

Structure (SMILES) | hERG current change (%, negative = inhibition) at 1uM [%]
Fc1ccc(CSc2ncnc3ccccc23)cc1 | -0.628
Cc1ccc(-c2nnc(SC(C)C#N)n2N)cc1 (stereo not drawn) | 14.7
C=CCN1C(=O)C(CC(=O)NCC)SC1=Nc1ccc(S(N)(=O)=O)cc1 (stereo not drawn) | 14.3
COc1ccc(C(=O)Nc2ccc(Cl)cc2C(=O)NCCO)cc1 | -36.2
COc1ccccc1N(CC(=O)NCCc1ccccc1)C(=O)CCC(=O)Nc1nccs1 | 6.13
COc1c(O)cccc1-c1nnn(CCC(=O)OCC(=O)c2ccccc2)n1 | 27.7
COc1ccccc1CNS(=O)(=O)c1c(C(=O)N2CCCC2)c(C)n(C)c1C | 13.4
Cn1ccs/c1=N\S(=O)(=O)c1ccc(F)cc1 | 10.8
Cc1ccc(OCCCCN2CCC(C)CC2)cc1.O=C(O)C(=O)O | -0.565
Cc1occc1-c1nnc(SCC(=O)NCCc2ccccc2)n1C(C)c1ccccc1 (stereo not drawn) | -5.95
CCOC(=O)N1CCN(C(=O)Cc2cccs2)CC1 | 18.5
CCOc1ncccc1C(=O)N1CCCSC1=Nc1ccc(C(C)=O)cc1 | -8.91
CCCN1Cc2cccc(C(=O)Nc3ccc4c(c3)OCCO4)c2C1=O | 6.86
Cc1cc(C(=O)N2CCN(c3cccc(Cl)c3)CC2)c(C)o1 | 11
COc1cc(/C=C2\SC(=Nc3ccc(Cl)c(C(=O)O)c3)NC2=O)c(Br)c(Br)c1O | 9.09
CC(C)c1ccc(CNc2c([N+](=O)[O-])c(=O)oc3ccccc23)cc1 | 10.7
CS(C)=O.Cc1[nH]c2ccccc2c1/C=N/Nc1ccc([N+](=O)[O-])cc1S(=O)(=O)Nc1ccc(Cl)cc1 | 11.8
Cc1nn(Cc2ccc(Cl)cc2Cl)c(C)c1NC(=O)C1C2CCC(O2)C1C(=O)O (stereo not drawn) | 8.02
Cc1ccc(S(=O)(=O)N2CCN(CCOc3cccc(C)c3)CC2)cc1 | 3.4

Structure (SMILES) | hERG current change (%, negative = inhibition) at 1uM [%]
CCc1ccc(NC(=O)C2CCN(S(=O)(=O)c3c(C)noc3/C=C/N(C)C)CC2)cc1 | 7
NNC(=O)c1ccc(COc2cccc3cccnc23)cc1 | 5.5
COc1ccc(-c2csc(NC(=O)c3ccc(N4C(=O)CCC4=O)cc3)n2)cc1 | 25.5
O=C(O)c1ccc(N/N=C/c2c[nH]c3ccccc23)cc1 | 4.61
O=C(COC(=O)c1ccccc1)Nc1ccccc1Sc1ccccc1 | -1.22
CCOC(=O)C(=O)/C(=C\N(C)C)c1onc(-c2ccccc2)c1C(=O)OC | 10.4
Cc1ccc(S(=O)(=O)N2CCN(C(=O)c3ccnn3C)CC2)cc1C | 15.7
CCS(=O)(=O)N1CCC(N2CCN(c3ccccc3)CC2)CC1 | 7.61
Cc1cc(-c2nn(-c3ccccc3F)cc2CN(C)CC(O)CO)c(C)s1 (stereo not drawn) | -0.301
Cc1ccc(N(Cc2ccccc2F)S(C)(=O)=O)cc1C | 8.79
CCO[C@H]1OC(C(N)=O)=C[C@@H](c2ccccc2)[C@@H]1CCCO | 3.75
COc1cc(NC(=O)c2ccco2)c(C(=O)OCC(=O)c2c[nH]c3ccccc23)cc1OC | 12.3
Cc1c(Cl)cccc1NC(=S)NC1CCCC1 | 12.9
COc1ccc(NC(C)=O)cc1NC(=O)CSc1nnc(-c2ccccn2)n1C | -3.27
Cc1ccccc1NC(=O)Cn1cnc2c(oc3ccccc32)c1=O | 11.6
CC(NCCO)C(=O)C12CC3CC(CC(C3)C1)C2.Cl (stereo not drawn) | 13.5
O=C(COc1ccc(Cl)cc1)NCc1ccc(F)cc1 | 8.04
Cn1c(CNc2nc3ccccc3n2CCN2CCCCC2)nc2ccccc21 | -14.8
O=C(O)COc1c(F)c(F)c(C(F)(F)F)c(F)c1F | 10.4

Structure (SMILES) | hERG current change (%, negative = inhibition) at 1uM [%]
COC(=O)c1cc(C)sc1NC(=O)CCc1ccccc1 | 5.19
Cn1c(SCC(=O)NCc2ccccc2)nnc1C1CC1 | 13.7
O=C(CCN1CCN(c2ccccc2)CC1)NNC(=O)c1cccc2ccccc12 | 8
COc1ccc(N2CSC3=C(C#N)C(c4cc(OC)c(OC)cc4OC)CC(=O)N3C2)c(OC)c1 (stereo not drawn) | -2.09
O=C(CN1CCN(c2ccc(F)cc2)CC1)Nc1ccc(S(=O)(=O)N2CCOCC2)cc1 | 13.8
COc1ccc(Cc2c3cc(OC)c(OC)cc3cc[n+]2C)cc1OC.[I-] | 1.79
CCC(CC)NC(=O)c1oc2ccccc2c1COc1ccccc1 | 14.7
CN(C(=O)CCc1nc2ccccc2s1)c1ccccc1 | 7.76
CCOC(=O)C1=C(Nc2ccc(Cl)cc2)OCC1=O | 14.8
O=C(O/N=C/C1=C(Cl)c2ccccc2CC1)c1ccc(F)cc1 | 6.07
CN1CCC(OC(=O)C23CCC(C)(C(=O)O2)C3(C)C)CC1 (stereo not drawn) | 0.628
O=C(Cc1c2ccccc2nc2ccccc12)c1ccccc1 | -1.24
Cc1ccc(S(=O)(=O)N2CCC(C(=O)C3C(=O)CC(C)(C)CC3=O)CC2)cc1 | 18.8
CCOc1ccc(-c2cn[nH]c2N)cc1 | -7.24
Nc1ccc(OCc2ccccc2)cc1 | 10.7
COC(=O)C1CCN(C(=O)c2c(-c3ccccc3Cl)noc2C)CC1 | 14
CCn1c(C)nc2cc(C(=O)NNS(=O)(=O)c3c(F)cc(F)c(Cl)c3F)ccc21 | 8.35
Cc1c(CC(=O)NCCCC(=O)O)c(=O)oc2c(C)c3oc4c(c3cc12)CCCC4 | 8.92
CC(C)Oc1ccc2c(c1)OC(c1ccccc1)(C(F)(F)F)NC2=O (stereo not drawn) | 3.67
